Out of some 310,000 compounds screened, about 14,000 (4.5%) showed an effect of 50% or more. Effects have a minus sign here. The list shows a part of the results.
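Note: peak tail current of the secondary pulse compared with the same well before compound.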

In this test the target is human ether-à-go-go-related gene (hERG) potassium channel (human, UniProt Q12809). Description: primary screen, population patch clamp on CHO cells stably expressing hERG.
Chain of human ether-à-go-go-related gene (hERG) potassium channel (Q12809 whole entry, looked up): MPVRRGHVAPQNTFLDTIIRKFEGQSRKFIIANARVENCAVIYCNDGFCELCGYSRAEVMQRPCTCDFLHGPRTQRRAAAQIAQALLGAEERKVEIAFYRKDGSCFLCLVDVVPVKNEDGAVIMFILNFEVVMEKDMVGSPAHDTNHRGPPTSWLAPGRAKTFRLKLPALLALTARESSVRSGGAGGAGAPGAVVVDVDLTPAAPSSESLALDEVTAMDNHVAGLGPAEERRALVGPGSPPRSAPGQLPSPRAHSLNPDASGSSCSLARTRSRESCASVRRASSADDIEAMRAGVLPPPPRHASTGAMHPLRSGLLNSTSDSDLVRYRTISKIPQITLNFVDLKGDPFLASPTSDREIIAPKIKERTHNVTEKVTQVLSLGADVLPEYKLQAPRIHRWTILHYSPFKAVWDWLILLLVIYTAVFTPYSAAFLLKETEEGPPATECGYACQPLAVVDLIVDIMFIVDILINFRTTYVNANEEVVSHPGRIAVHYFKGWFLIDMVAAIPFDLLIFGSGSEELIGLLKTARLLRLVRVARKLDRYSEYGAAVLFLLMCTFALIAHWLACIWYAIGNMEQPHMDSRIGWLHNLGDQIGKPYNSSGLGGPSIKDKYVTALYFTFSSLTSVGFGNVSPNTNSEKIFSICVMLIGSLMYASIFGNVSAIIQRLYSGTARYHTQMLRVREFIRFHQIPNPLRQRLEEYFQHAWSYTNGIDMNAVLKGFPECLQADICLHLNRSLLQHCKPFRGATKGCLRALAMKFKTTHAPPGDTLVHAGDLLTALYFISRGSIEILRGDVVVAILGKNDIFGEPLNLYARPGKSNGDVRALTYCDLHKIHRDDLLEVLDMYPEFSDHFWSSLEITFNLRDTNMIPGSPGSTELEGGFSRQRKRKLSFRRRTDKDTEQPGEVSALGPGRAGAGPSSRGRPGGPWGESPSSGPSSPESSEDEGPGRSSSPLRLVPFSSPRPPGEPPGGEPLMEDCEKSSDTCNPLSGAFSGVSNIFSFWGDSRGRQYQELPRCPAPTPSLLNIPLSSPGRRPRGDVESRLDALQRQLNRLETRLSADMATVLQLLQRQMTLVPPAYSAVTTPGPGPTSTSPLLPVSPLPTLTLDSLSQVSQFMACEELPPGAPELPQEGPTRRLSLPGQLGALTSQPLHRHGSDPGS
Take `CCCCOC(=O)Nc1ccccc1C(N)=O`: the “hERG current change (%, negative = inhibition) at 10uM” value is -5.36%.
As to `O=C1Nc2ccc(F)cc2C12Nc1ccccc1-c1nnc(SCc3ccccc3F)nc1O2` (centres unmarked), the “hERG current change (%, negative = inhibition) at 10uM” value is given as 5.23%.
With `COc1ccc(C(C)=O)cc1Cc1c(O)[nH]c(=S)[nH]c1=O`, the “hERG current change (%, negative = inhibition) at 10uM” value was 11.1%.
For `Cn1ncc(N2CCN(S(=O)(=O)c3ccc(Br)cc3)CC2)c(Cl)c1=O` the value was -43.9%.
Take `COc1ccc(Cc2nc3ccccc3[nH]2)cc1OC`: the “hERG current change (%, negative = inhibition) at 10uM” value was 6.17%.
For `CC(OC(=O)C1CCN(S(=O)(=O)c2ccc(Cl)cc2)CC1)C(=O)NC1CCCCC1C` (centres unmarked) the value was -1.5%; for `COc1ccccc1CNC(=O)CCCn1nc(C)c2c(C)n(-c3ccc(C)cc3)nc2c1=O`, -35.8%.
With `O=C(CNC(=O)COc1ccccc1)NCCN1CCOCC1` the figure was 4.48%.
With `CC(OC(=O)c1nn(C)c(=O)c2ccccc12)C(=O)NCc1ccc2c(c1)OCO2` (centres unmarked) the figure was -18.8%.
Regarding `Cc1onc(-c2ccccc2)c1C(=O)n1cccn1`, the “hERG current change (%, negative = inhibition) at 10uM” value was determined as 12.3%.
For `CCOC(=O)c1c(-c2ccccc2)oc2ccc(O)c(CN3CCOCC3)c12` the value was -37%; for `CCOc1ccc2nc(NC(=O)C3CCN(c4cnccn4)CC3)sc2c1`, -8.84%; for `CCN(CC(=O)Nc1ccc(C#N)c(Cl)c1)CC(=O)NC(C)(C)C`, -9.96%.
With `COc1ccc(CC(=O)NNC(=O)CN(C)S(=O)(=O)c2ccc(Cl)cc2)cc1OC` the figure was 0.252%.
For `CCOC(=O)CNC(=O)CSc1nnc(-c2ccccc2)n1Cc1ccco1` the value was 5.91%; for `COc1ccccc1C(=O)Nc1nnc(-c2ccc(F)cc2)o1`, -11.9%; for `CC(C)C(O)C1CCN(Cc2nc(-c3cccs3)no2)CC1` (centres unmarked), 0.0552%.
For `O=C(NC1=NCCS1)c1ccc(OCC2CCCO2)cc1` (centres unmarked), the “hERG current change (%, negative = inhibition) at 10uM” value is recorded as 1.71%.
On to `O=C(OCc1ccccc1)c1cnc(Cl)c(Cl)c1`, for which the “hERG current change (%, negative = inhibition) at 10uM” value is -7.52%.
With `CC1CC(C)CN(C(=O)c2cccc(N3C(=O)c4ccccc4C3=O)c2)C1` (centres unmarked) the figure was -25.2%; with `N#Cc1ccc(OCc2cccc(S(=O)(=O)N3CCOCC3)c2)cc1`, -82.1%.
Turning to `NC(=O)CC(NC(=O)c1ccccc1)c1ccc(N2CCC(Cc3ccccc3)CC2)c([N+](=O)[O-])c1` (centres unmarked), the “hERG current change (%, negative = inhibition) at 10uM” value amounted to 4.44%.
For `CC1CC(C(F)F)n2nc(C(=O)Nc3sc4c(c3C#N)CCC(C(C)(C)C)C4)nc2N1` (centres unmarked) the value was 13.2%.
Regarding `CC1CCCCN1C(=O)C1CCN(S(=O)(=O)c2ccc(-n3cnnn3)cc2)CC1` (centres unmarked), the “hERG current change (%, negative = inhibition) at 10uM” value is recorded as -61.5%.
With `Cc1ccc(CNC(=O)CSc2nnc(CNC(=O)c3ccccc3)o2)cc1` the figure was 5.55%; with `Cn1cc(CNC(=O)C2CCCCC2)cn1`, -0.619%.
With `O=C(CCc1nc2ccccc2[nH]c1=O)OCC(=O)N1CCc2ccccc21` the figure was 7.45%; with `COc1ccc(N2CCN(S(=O)(=O)CCNC(=O)c3ccco3)CC2)cc1`, -9.43%.
With `CC(NC(=O)c1ccc(F)cc1Cl)C1CC2CCC1C2` (centres unmarked) the figure was 4.99%; with `CCc1ccc(C2CC(c3ccc(F)cc3)Nc3nc(N)nn32)cc1` (centres unmarked), -16.2%; with `COc1cc2c(cc1OC)C(C)NCC2.Cl` (centres unmarked), 14.1%.
On to `COc1cc(C)c(S(=O)(=O)n2nnc3ccccc32)cc1C`, for which the “hERG current change (%, negative = inhibition) at 10uM” value worked out at 13.8%.
With `Cc1ccc(C(=O)O/N=C(\c2ccccc2)c2cccnc2)cc1` the figure was -18.7%.
For `COc1ccc(C)cc1C1=CC(=O)C[C@H](c2ccc(F)cc2)C1` the value was -0.352%; for `CCc1nnc(NC(=O)C(c2ccccc2)c2ccccc2)s1`, 8.97%.
For `CC1(OC(=O)CCc2ccccc2)C(=O)C=C2C=C(c3ccc(C#N)cc3)N(CCN3CCOCC3)C=C2C1=O` (centres unmarked) the value was -49.9%; for `Cc1ccc(S(=O)(=O)NNC(=O)/C=C/c2cccc(F)c2)cc1`, -6.52%.
As for `Cc1cnc(C(=O)OCC(=O)N2CCc3ccccc32)cn1`, the “hERG current change (%, negative = inhibition) at 10uM” value is listed as -0.918%.
With `Cc1ccc(S(=O)(=O)NC(=O)c2cc(C)n(C3CC3)c2C)cc1`, the “hERG current change (%, negative = inhibition) at 10uM” value amounted to 12.8%.
For `CC1(C)CC(=O)C2=C(C1)N(Cc1ccco1)C(=O)C2(NC(=O)c1cccnc1)C(F)(F)F` (centres unmarked) the value was -9.85%.
With `COc1ccc(C(=O)N2CCN(c3ccc(NC(=O)c4cccs4)cc3)CC2)cc1` the figure was -9.75%; with `Cn1cc(CN2CCCCC2CO)c(-c2ccc(Oc3ccccc3)cc2)n1` (centres unmarked), -49.6%.
As to `Cc1occc1C(=O)NNC(=S)NCc1ccccc1`, the “hERG current change (%, negative = inhibition) at 10uM” value is 6.47%.
For `Cc1csc(/N=C/c2ccc([N+](=O)[O-])cc2)n1` the value was -14.1%; for `CSc1sc(C(=O)O)c2c1C(=O)CCC2`, 12.8%.
For `COc1ccc(/C=C/CN2CCN(Cc3ccccc3)C(CCO)C2)cc1` (centres unmarked) the value was -51.9%; for `CCOc1ccccc1N1CC(C(=O)Nc2ccc(S(=O)(=O)N3CCCCC3)cc2)CC1=O` (centres unmarked), -3.91%.
For the compound `COc1ccc(/C=N/NC(=O)C(C)Sc2ccccn2)cc1[N+](=O)[O-]` (centres unmarked), the “hERG current change (%, negative = inhibition) at 10uM” value was -7.8%.
Consider `CCOC(=O)CCC(NC(=O)CCCCC(=O)NC(CCC(=O)OCC)C(=O)OCC)C(=O)OCC` (centres unmarked), for which the “hERG current change (%, negative = inhibition) at 10uM” value was 8.74%.
With `COCCSc1nnc(-c2cccc(C#N)c2)n1C` the figure was -1.52%; with `COc1ccccc1OCCC(=O)OCC(=O)Nc1ccc(S(=O)(=O)N2CCOCC2)cc1`, -18.1%.
Turning to `O=C(NCCc1c[nH]c2ccccc12)c1cc(Cl)c2c(c1)OCO2`, the “hERG current change (%, negative = inhibition) at 10uM” value was -0.615%.
For `CCCN1CCN(C(=S)Nc2ccc(S(N)(=O)=O)cc2)CC1` the value was 32.6%; for `CCCCn1c(=O)[nH]c(=O)c2c1nc(-c1cccc(OC)c1)n2C`, -3.16%.
With `COc1ccc(NC(=O)CN(C)S(=O)(=O)c2ccc3[nH]c(=O)oc3c2)cc1` the figure was 0.604%; with `Cc1ccc(NC(=O)CSc2ccc(-c3cccnc3)nn2)cc1Cl`, -17.9%.

The values are drawn from article PMC4336329 (PLoS ONE, 2015).
